Results taken from PubChem BioAssay AID1030 (National Center for Advancing Translational Sciences (NCATS), 2008).
The whole screen tested about 220,000 compounds, of which about 16,000 (7.3%) were called active. The shares of active, inactive and inconclusive entries below differ from those in the screen. Calls follow the shape of the dose curve; as a rule, active = well fitted inhibition curve with a large enough effect (not every such curve was filed as active); inconclusive = small, poorly fitted or top-dose-only effect, or another doubt; inactive = no such curve, though single readings can be large or run the other way. Potencies of inconclusive entries are left out as doubtful fits.

biological target: Aldehyde dehydrogenase 1A1 (Homo sapiens) (UniProt P00352); assay: qHTS Assay for Inhibitors of Aldehyde Dehydrogenase 1 (ALDH1A1); details: Purified ALDH1A1, NADH fluorescence, propionaldehyde substrate; series mostly up to 75.3 µM;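 as to activity, negative = inhibition: plate controls were no enzyme wells and a reference inhibitor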
Sequence of UniProt P00352 (P00352 whole entry, looked up): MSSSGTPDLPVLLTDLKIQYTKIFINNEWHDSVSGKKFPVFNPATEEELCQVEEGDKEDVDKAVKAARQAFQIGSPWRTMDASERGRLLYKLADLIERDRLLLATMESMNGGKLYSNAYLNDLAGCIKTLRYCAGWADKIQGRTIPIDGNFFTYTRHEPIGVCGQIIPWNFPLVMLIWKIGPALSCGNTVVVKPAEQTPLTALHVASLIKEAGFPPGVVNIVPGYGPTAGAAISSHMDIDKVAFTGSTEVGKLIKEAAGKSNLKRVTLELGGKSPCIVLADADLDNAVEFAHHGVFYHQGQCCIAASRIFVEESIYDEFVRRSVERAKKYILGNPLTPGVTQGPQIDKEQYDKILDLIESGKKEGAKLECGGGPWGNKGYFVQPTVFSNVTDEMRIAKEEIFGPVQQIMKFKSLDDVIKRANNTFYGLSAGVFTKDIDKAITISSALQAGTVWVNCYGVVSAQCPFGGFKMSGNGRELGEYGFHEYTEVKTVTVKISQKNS
Potency is read from the fitted curve at half-maximal effect; tags tell the direction and shape of the fitted curve.

Compound | Potency | activity, negative = inhibition
Cc1ccc(CCc2nnc(SCC(=O)Nc3cccc(Cl)c3)n2-c2ccccc2)o1 | inconclusive [inhibitor, single point] | –
COc1cccc(Cn2c(OCC3CCCO3)nc3c2c(=O)n(C)c(=O)n3C)c1 (configuration not stated) | active: 7.08 µM | –
CCCCS(=O)(=O)N1C2=NC(C(=O)OC)=C(C(=O)OC)[C@@H]3N(C)c4ccccc4[C@]23C[C@H]1C(=O)OC | – | inactive: 6.16% [at 13.5 µM]
CCOC(=O)c1ccc(NC(=O)c2nn(C)cc2Br)cc1 | inactive | –
O=C1c2ccccc2C2=Nc3ccccc3SC(c3cccc(F)c3)C12 (configuration not stated) | inactive | –
Cc1ccc(CN2CCN(C(=O)c3ccncc3)CC2)cc1 | inconclusive [inhibitor, single point] | –
COc1ccc(/C=C2/N=C3CCCCCN3C2=O)cc1OC | active: 28.2 µM | –
CN(CC(=O)Nc1ccc(S(=O)(=O)N2CCCC2)cc1)Cc1c(F)cccc1Cl | inconclusive [inhibitor, single point] | –
CN1CCN(C(=O)C2=C[C@@H](c3ccc4c(c3)OCO4)C[C@@H](OCc3ccc(CO)cc3)O2)CC1 | inactive | –
O=C1C=C(O)c2ccccc2C1=O | active: 15.8 µM | –
COc1ccc(-n2nc(C)c3sc(C)nc3c2=O)cc1 | inconclusive [inhibitor, single point] | –
Cc1ccc(OCCC(=O)OCC(=O)N2c3ccccc3CC2C)cc1 (configuration not stated) | inactive | –
Cc1nonc1C1CCCN1C(=O)c1cc(COc2ccc(F)cc2Cl)on1 (configuration not stated) | inconclusive [inhibitor, single point] | –
Cc1ccc(S(=O)(=O)NCCCCCC(=O)Nc2c(C)n(C)n(-c3ccccc3)c2=O)cc1 | active: 12.6 µM | –
Cc1cccc(N=C2NN=C(c3ccc4c(c3)OCCO4)CS2)c1 | inconclusive [inhibitor, single point] | –
CN1/C(=C/C(=S)NC(=O)C2CCC2)C(C)(C)c2ccccc21 | inconclusive [inhibitor, single point] | –
Cn1c(SCc2cccc3ccccc23)nnc1-c1ccco1 | inconclusive [inhibitor, single point] | –
O=C(COc1ccccc1)Nc1nnc(-c2ccc(Cl)s2)o1 | inconclusive [inhibitor, partial curve] | –
COCCNc1ncnc2ccc(-c3ccc(C(=O)N(C)C)cc3)cc12 | inconclusive [inhibitor, partial curve] | –
O=C(O)c1cccc(S(=O)(=O)N(Cc2ccccc2)c2ccccc2)c1 | inconclusive [inhibitor, partial curve, poor fit] | –
O=C(c1ccccc1)C1O[C@H]1c1ccccc1 (some centres not stated) | inactive | –
O=C(CCN1C(=O)C2C3CC(C(Br)C3Br)C2C1=O)OCC(=O)c1ccccc1 (configuration not stated) | inactive | –
Cc1c(NC(=O)C(C)Sc2ncnc3ccccc23)c(=O)n(-c2ccccc2)n1C (configuration not stated) | inconclusive [inhibitor, single point] | –
CCOC(=O)c1cnn(-c2ncnc3c2oc2ccccc23)c1N | inactive | –

Compound | Potency | activity, negative = inhibition
OCCNCCOc1ccc(Cl)c(Cl)c1 | inactive | –
CC(=O)Nc1ccccc1OCC(=O)c1cc(C)n(Cc2cccs2)c1C | inconclusive [inhibitor, partial curve] | –
Cc1ccc(S(=O)(=O)/N=C(/Nc2ccccn2)c2ccc(Cl)cc2)cc1 | inconclusive [inhibitor, partial curve] | –
CCOCCCn1c(=NC(=O)c2ccc(OC)c(OC)c2)c(C#N)cc2c(=O)n3cccc(C)c3nc21 | inconclusive [inhibitor, partial curve] | –
O=C(COc1nc2ccccc2nc1N1CCOCC1)Nc1ccc(S(=O)(=O)N2CCCC2)cc1 | inconclusive [inhibitor, single point] | –
CCn1c(C)cc(/C=C2\NC(=O)N(Cc3ccc(Cl)cc3)C2=O)c1C | inconclusive [inhibitor, single point] | –
COc1cc(-n2c(-c3ccccc3)n[nH]c2=S)c(OC)cc1Cl | inconclusive [inhibitor, partial curve] | –
CN(C)/C=N/C(=S)Nc1ccc(Cl)c(Cl)c1 | inactive | –
Cc1cccc(NC(=S)NNC(=O)c2csc3c2CCC(C)C3)c1 (configuration not stated) | active: 22.4 µM | –
COc1ccc(-n2c(Cc3cccn3C)nnc2SCC(=O)N2CCC(C)CC2)cc1 | inconclusive [inhibitor, partial curve] | –
O=C(CN1CCNC(=O)C1)NCCc1ccc(Cl)cc1Cl | inactive | –
c1ccc(Cn2nnnc2C(c2cccnc2)N2CCN(c3ccccc3)CC2)cc1 (configuration not stated) | inactive | –
C/C(=C\C(=O)c1ccc(Cl)cc1)NCc1ccc2c(c1)OCO2 | inconclusive [inhibitor, full curve, poor fit] | –
Cc1ccc2c(c1)[C@@H]1CN(C)CC[C@@H]1N2S(=O)(=O)c1ccc([N+](=O)[O-])cc1 | inconclusive [inhibitor, single point] | –
C#CCNc1nc(CC)nc2c1nnn2Cc1ccccc1F | active: 7.94 µM | –
COc1cc(/C=C/C(=O)Nc2nc3ccc(S(=O)(=O)N(C)C)cc3s2)cc(OC)c1OC | inconclusive [inhibitor, partial curve] | –
COc1ccc(NC(=S)N(CCCN2CCCCC2)Cc2cccs2)cc1 | inconclusive [inhibitor, single point] | –
CCC(=O)Nc1ccc(NC(=O)CSc2nnnn2-c2ccc3c(c2)OCCO3)cc1 | inactive | –
CC(C)CC(=O)NC(Nc1ccc([N+](=O)[O-])cc1)C(Cl)(Cl)Cl (configuration not stated) | inconclusive [inhibitor, single point] | –
Cc1cc2c(C)nc(Cc3ccccc3)nc2o1 | active: 8.91 µM | –
CC(=O)/C=C/c1ccccc1O | inactive | –
COc1ccc(/C(N)=N/OC(=O)c2ccc(OC)c([N+](=O)[O-])c2)cc1OC | inconclusive [inhibitor, partial curve, poor fit] | –
CCNc1ncc2nc(-c3ccc(OC)cc3)c(=O)n(Cc3cccs3)c2n1 | inconclusive [inhibitor, partial curve] | –
CC(=O)OC[C@@H]1O[C@H](CCO/N=C(\C)CCN2CCCc3nc(C)c(C)cc32)C=C[C@@H]1OC(C)=O | – | inactive: -19.9% [at 13.5 µM]

Compound | Potency | activity, negative = inhibition
Cc1[nH]n(-c2ccccc2)c(=S)c1C=Nc1ccc([N+](=O)[O-])cc1 | active: 5.62 µM | –
O=C(NC(=S)NNC(=O)c1ccccc1[N+](=O)[O-])c1ccccc1 | active: 10 µM | –
CC(C)[C@@H](CC(=O)N[C@@H]1CCCC[C@H]1C(=O)N[C@H](CC(=O)N[C@@H](CCC(=O)O)CC(=O)O)Cc1c[nH]c2ccccc12)NC(=O)C[C@H](Cc1c[nH]c2ccccc12)NC(=O)[C@@H]1CCCC[C@H]1N | inactive | –
Cc1c2c(nc3nc4ccccc4n13)CCCC2=O | inactive | –
COc1ccc(C(=S)N2CCOCC2)cc1OC(=O)c1cc([N+](=O)[O-])c(C)c([N+](=O)[O-])c1 | inconclusive [inhibitor, single point] | –
CCOC(=O)c1cccc(NC(=O)CSc2nnc(-c3ccoc3C)n2CCOC)c1 | active: 20 µM | –
CC(=O)Nc1ccc(OC(F)(F)C(F)F)c(NC(C)=O)c1 | inconclusive [inhibitor, single point] | –
C/C(=N/OC(=O)c1c(-c2ccccc2Cl)noc1C)c1cnccn1 | inconclusive [inhibitor, partial curve] | –
O=[N+]([O-])c1cccc(-c2n[nH]c(=S)n2-c2ccc(Br)cc2)c1 | inactive | –
CC(C)O | inconclusive [inhibitor, single point] | –
Cc1cccc(NC(=S)NNC(=O)c2ccc3c(c2)OCO3)c1 | inconclusive [inhibitor, single point] | –
O=C(CCOc1ccc(F)cc1)Nc1nccs1 | inconclusive [inhibitor, single point] | –
COc1ccc(C(=O)/C=C/C(=O)N(CC(=O)NC2CCCCC2)Cc2ccccc2)c(O)c1 | inconclusive [inhibitor, partial curve] | –
COc1ccc(NC(=S)N2CCN(c3ccccn3)CC2)cc1OC | active: 25.1 µM | –
CCOC(=O)C(C)n1nc(C)c2sc3ccccc3c2c1=O (configuration not stated) | inconclusive [inhibitor, single point] | –
CC1CCc2c(sc(/N=C/N(C)C)c2C#N)C1 (configuration not stated) | inconclusive [inhibitor, single point] | –
O=C(Nc1ccc(Cc2ccncc2)cc1)c1cccc([N+](=O)[O-])c1 | inactive | –
O=S(=O)(c1ccccc1)N1CCC2(CCCN(Cc3nccs3)C2)CC1 | inconclusive [inhibitor, single point] | –
CCOC(=O)c1c(C)[nH]c(C(=O)CC(=O)OC)c1C | inconclusive [inhibitor, partial curve] | –
O=C(CCn1c(=O)c2ccccc2n(Cc2ccccc2)c1=O)NCc1ccc2c(c1)OCO2 | inactive | –
O=C(CSc1nc2cc(Cl)ccc2c(=O)n1Cc1ccco1)Nc1ccc(S(=O)(=O)N2CCOCC2)cc1 | active: 7.94 µM | –
Cc1cc(C(=O)N/N=C/c2cc([N+](=O)[O-])ccc2O)c2ccccc2n1 | inactive | –
CCN1CCN(c2cc(C)c3cc(NC(=S)N4CCN(c5ccccc5F)CC4)ccc3n2)CC1 | active: 12.6 µM | –
COc1ccc(C(=O)CSc2nnc(Cn3nnc4ccccc43)n2C)cc1 | inconclusive [inhibitor, single point] | –
